Source: the RNAGym collection of RNA variant scans (doi:10.1093/nar/gkz1192)
Read counts are not given, so values of variants with three or more changes are uncertain.

B1: CPEB3 Ribozyme (parent)
chain: UAACAGGGGGCCACAGCAGAAGCGUUCACGUCGCAGCCCCUGUCAGAUUCUGGUGAAUCUGCGAAUUCUGCUGUAUAUCUC

Variants of: B1
Test: self-cleavage, relative activity (ratio to wild type); higher = more cleavage; in vitro, sequencing
Summary of the method: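 Relative activity was defined as the cleaved/total read fraction for a variant divided by the same fraction for the unmutated ribozyme. CPEB3 self-cleaving ribozyme libraries were made by rounds of error-prone PCR, barcoded, and transcribed in vitro with T7 RNA polymerase for 5 hours at 37°C, and cleavage ran through transcription plus a 15 min DNase I step before EDTA. Illumina sequencing of template-switched reverse transcripts gave the reads, and DNA sequencing mapped the barcodes. Averages come from three batches, using variants with at least 5 reads.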

Variant | self-cleavage
AAACAGGGGGCCACAGCAGAAGCGUUCACGUCGCAGCCCCUGACAGAUUCUGGUGAACCUGCGAAUUCUUCUGCAUAUCUC | 0.2
AAACAGGGGGCCACAUCAGAAGCGUUCACGUCGCAGCCCCCGUCAGAUUCUGGUGAAUCUGCGAGUUCUGCUGUAUAUCUC | 0.13
AAACAGGGGGCCACAGCAGAAGCGUUCACGUCGCAGCCCCUGCCAGAUUCUGGUGAAUCUGCGGAUUCAGCAGUAUAUCUC | 0.08
AAACAGGGGGCAACAGCAGAAGCGUUCACGUCGCAGCCCCUGCCAGAUUCUGGUGAAUCUGCGAAUUCCGCCGUAUAUCUC | 0.09
AAACAGGGGGCCACAGAAGAAGCGCUCACGUCGCAGCCCCUGUCAGGUUCUGGUGUAUCUGCGAAUUCUGCUGUAUACCUC | 0.07
AAACAGGGGGCCACAGCAGAAGCGUCAACGUCGCAGCCCCUGUCAGAUUCUGGUGAAUCUGCGAAUUCUGCUGUAUAUCUC | 0.11
AAACAGGGGGCCACAGCAGAAGCGUUCACGUCGCAGCCCCCGUCAGAUUCAGGUGAAUCUGCGAACUCAGCUGUAUAUCUC | 0.47
AAACAGGGGGCAACAGCAGUAGCGUUCACGUCGCUGCCCCUGUCGGAUUCUGGUGAAUCUGCGAAUUCUGCUGUAUAUCUC | 0.19
AAACAGGGGACCACAGCAGAAGCGUUCACGUCGCUGUCCCUGUCAGAUUCUGGUGAAUCUGCGAAUUCUGCUGAAUAUCUC | 0.68
AAACAGGGGGCCACAGCAGAAGCGUUCACCUCGCAGUCCCUGACAGAUUCUGGUGAAUCUGCGUAUUCUGCUGUAUAUCUC | 0.17
AAACAGGGGGCCACAGCAGAAGCGUUCACGCCGCAGCCCCUGUCAGAUUCUGGAGAGUCUGCGAGUUCUGCCGUAUAUCUC | 0.29
AAACAGAGGGACACAGCAGAAGCGUUCACGUCGCAGCCCCUGUCAGAUUCUGGUGAAUCUGCGAGUUCUGCUGUAUGUCUC | 0.06
AAACAGUGCGCCACAGCAGAAGCGUUCACGUCGCAGCCCCUGUCAGAUUCUGGUGAAUCUGCGAAUUCGGCUGUAUAUCUC | 0.07
AAACAGGGUGCCACAGCAGAAGCGUUCACGUCGCAGCCCCUGUCAGAUUCUGGUGGAUCUGCGAAAUUUGCUGUAUAUCUC | 0.14
AAACAGGGGGCUACAGCAGAAGCGUUCACGUCGCAGCCCCUGUCAGAUUCUGGUGAAUCUGCGAAUUCCGCUGUAUAUCUC | 0.95
AAACAGGGGGCCACAGCAGAAGCGUUCACGUCGCAGCCCCUGUCAGACUCCGGCGAAUCUGCGAAUUCUGCUGUAUGUCUC | 0.33
AAACAGGGGGCCACAGCAUAAGCGCUCACGUCGCAUCCCCUGUCGGAUUCUGGUGAUUCUGCGGAUUCUGCUGUAUAUCUC | 0.1

Variant | self-cleavage
AAACAGGGGGCCACAGCAGAAGCGCUCACGUCGCAGCCCCUGUCAGAUUCUGGAGAAUCUGCGAACUCUGCUGUAUUUCUC | 0.18
AAACAGGGGGCCACAGCAGAAGCGUUCACGCCGCAGCCCCUGUCAGAUUCUGGUGGAUCUGCGGAUUCUGCUGUACAACUC | 0.18
AAACAGGGGGGCACAGCAGAAGCGUUCGCGUCGCAGCCCAUGUCAGAUUCUGGAGAAUCUGCGAAUUCUGCUGUAUAUCUC | 0.08
AAACAGGGGGCACCAGCAGAAGCGUUCACGUCGCAGCCCCUGUCAGAUUCUGGGGAAUCUGCGAAUUCUGCUGUAAAUCCC | 1.02
AAACAUGGGGCCACAGUAGGAGCGCUCACGUCGCAGCCCCUGUCAGGUUCUGUUGAAUCUGCGAAUUCUGCUGUAUAUCUC | 0.18
AAACAGGGUGCCACAGCAGAAGCGUUCACGUCGCAGCCCCUGUCAGGUUCUGGUGAAUCUGCGAAUUCUGUUGUAUAUCUC | 0.06
AAACAGGGGGGCACAGCAGAAGCGUUCACGCCGCUGCCCCUGACAGAUUCUGGUGAAUCUGCGAAUUCUGCUGUAUAUCUC | 0.14
AAACAGGGGGGCACAGCAGAGGCGUUCACGUCGCAGCCCCGGUCAGAUUCUGGUGAAUCUGCGAAUUCUGCUGUAUAUCUC | 0.08
AAACAGGGGGCCACAGCAGAAGCGUUCACGUCGCAGCCCCUGUCAGAUCCUGAUGAAUCUGCGAAUUCAGCUGUAUAUCUC | 0.11
AAACAGGGGGCCACAGCAGAAGCGUUCAUGUCGCAGCCCCUGUCGGAUUCUGGUGAAUCUGCGAAUUCUGCUGUAUGUCUC | 0.28
AAACAGGGGGCCACAGCAGAAGCGCUCACGUCGCAGCCCCUGUCAGAUUCAGGUGUAUCUGCGACUUCUGCUAUAUAUCUC | 0.16
AAACAGGGGGCCACAGCAGAAGCGAUCACGCCGCAGCCCCUGUCAGAUUCUGGCGAAUCUGCGAAUUCUGCUGUAUAUCAC | 0.09
AAACAGGGGGCCACAGCAGAAGCGUUCACGUCUCAGCCCCUGUCAGGUUCUGGUGAAUCUGCGAAUUCAGCUGUAUAUCUC | 0.18
AAACAGGGGGCCACAGCAGAAGCGUUCACGUCGCAGCCCCCGUCAGAUUCAGGUGAAUCUGCGAAUUCUGCUGUAUAUCUC | 1.09
AAACAGGGGGCCACAGCAGAAGCGUUCACAUCGCAGCCCCCGCCAGAAUCUGGUGAAUCUGCGAAUUCUGCUGUAUAUCUC | 0.32
AAACAGUGGGCCACGGCAGAAGCGUUCACGUCGCAGCCCCUGUCAGAUUCCGGUGAAUCUGCGAAUUCCGCUGUAUAUCUC | 0.21
AAACAGGGGGCCACAGCAGAAGCGUUCACGCCGCAGCCCCUGUCAGAUUCCGGUGAAUCCGCGAAUUCUGCUGUAUAUCCC | 0.18
